Data on 6 molecules can be found in paper PMC12136788.

First the molecules themselves.
T1: UNK ZnF1-6 (called full-length) (human, UniProt Q9C0B0 30-357)
T1 sequence: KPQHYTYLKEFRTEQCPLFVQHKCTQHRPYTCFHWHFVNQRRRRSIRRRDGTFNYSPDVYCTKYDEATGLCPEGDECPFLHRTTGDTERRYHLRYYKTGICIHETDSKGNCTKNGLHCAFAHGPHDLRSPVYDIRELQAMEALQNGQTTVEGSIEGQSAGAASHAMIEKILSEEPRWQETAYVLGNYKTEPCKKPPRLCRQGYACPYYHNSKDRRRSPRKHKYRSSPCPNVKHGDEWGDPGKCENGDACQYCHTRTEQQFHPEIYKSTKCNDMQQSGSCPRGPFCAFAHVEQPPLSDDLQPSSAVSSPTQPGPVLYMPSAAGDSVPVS

B1: chr15:38485071:38485172:+|3pUTR|ENSG00000171262|unk|total|mutant (ssRNA)
RNA: GGGAGUUCUACAGUCCGACGAUCUUGCCUCACCUGUAUUGCUGUGGAUGUGUUUUGUGGGUUUUUCAUUCGAUUUUACAAAACCGGGAAAGGCACUUCCAGUUGUAUUCCGCCGGCAGUUGUUGUGAAUCAUUUUUUUCUCUUCAACAGAGGAUUGAGCAUCA
B2: ENSG00000198589:be:win_2301|CDS|ENSG00000198589|bound_else_gene|NA|bound_elsewhere_windowed (ssRNA)
RNA: GGGAGUUCUACAGUCCGACGAUCGCUAGCUGAAAGGCUCAUGCUUCAGACAAAUUUAAUCACAAUGACCACAUAUAAUGUGCUGUUUGAGAUUCUUAUAGAACAGAUUGGUACUCAGGUGAUACAUAAACAGCAUCCAGAUCCCAACAGAGGAUUGAGCAUCA
B3: ENSG00000070961:be:win_4951|3pUTR|ENSG00000070961|bound_else_gene|NA|bound_elsewhere_windowed (ssRNA)
RNA: GGGAGUUCUACAGUCCGACGAUCGGUAACAGCCCCAUGAAGUACCGCUUUAAUUCCUUGCUGGUAAUCUAAUAGAAUCAGAUUAAGAAAAUUAACACAAUUUUACCAUUUGACAUACUCUUCAUUGAAUUUAGUUUGUCUAAACAACAGAGGAUUGAGCAUCA
B4: chr3:121987322:121988366:-|three_prime_utr|ENSG00000145103|control|control|control (ssRNA)
RNA: GGGAGUUCUACAGUCCGACGAUCCCAAGCACAGCACAACUUCUGUGGCUACUUCUCGGCUCCUGUGUGUCAUCAGCAUCACCUAGGUUUCCAGCUGACUUGGGAACUGCAAGUCUGAGUCUAACAGUUUUUGGCUUAGAUUCUCAACAGAGGAUUGAGCAUCA
B5: chr17:31995613:31995700:+|CDS|ENSG00000178691|msi1_unk|FALSE|overlapping (ssRNA)
RNA: GGGAGUUCUACAGUCCGACGAUCAGCAUGUCUGAAUUUCUUGAAUCUGAAGAUGGGGAAGUAGAACAGCAAAGAACAUAUAGUAGUGGCCACAAUCGUCUGUAUUUCCAUAGUGAUACCUGCUUACCUCUCCGUCCACAAGAACAACAGAGGAUUGAGCAUCA
B6: chr17:81922623:81922724:-|CDS|ENSG00000197063|msi1|FALSE|unique (ssRNA)
RNA: GGGAGUUCUACAGUCCGACGAUCUGCCGCCGGCCUGGGGCCCCUCGUCCCAGGCAAGGUGGCCGCCACCAGCGUCAUCACAAUAGUAAAGUCCAAGACGGAUGCCCGAUCGUAGGGACGCGCGUCUGCCCAGGCGGGUCUUUGCAACAGAGGAUUGAGCAUCA

This is one part of the list.

This assay addresses T1, UNK ZnF1-6 (called full-length). Nature of the assay: nsRBNS (natural sequence RNA bind-n-seq); RBNS binding buffer (assumed for nsRBNS): 25 mM Tris pH 7.5, 150 mM KCl, 3 mM MgCl2, 0.01% Triton X-100, 500 ug/ml BSA, 20 U/ml SUPERase-In, 4 C; UNK is unkempt and MSI1 is Musashi-1; names of the RNAs are library labels; protein concentration not given here; high values mean tight binding.
As for B1, the binding signal is 0.32 enrichment R.

Consider B2, for which the binding signal was 0.359 enrichment R.

B3 came in with a binding signal of 0.952 enrichment R.

As for B4, the binding signal was 0.54 enrichment R.

B5 displayed a binding signal of 0.693 enrichment R.

Turning to B6, the binding signal was 0.591 enrichment R.
